The campaign covered roughly 310,000 compounds. About 2,200 (0.71%) showed an effect of 50% or more. The effect is printed as a negative number. The list shows a part of the results.
target: human ether-à-go-go-related gene (hERG) potassium channel (human, UniProt Q12809); test: primary screen, population patch clamp on CHO cells stably expressing hERG
Sequence (Q12809 whole entry, looked up): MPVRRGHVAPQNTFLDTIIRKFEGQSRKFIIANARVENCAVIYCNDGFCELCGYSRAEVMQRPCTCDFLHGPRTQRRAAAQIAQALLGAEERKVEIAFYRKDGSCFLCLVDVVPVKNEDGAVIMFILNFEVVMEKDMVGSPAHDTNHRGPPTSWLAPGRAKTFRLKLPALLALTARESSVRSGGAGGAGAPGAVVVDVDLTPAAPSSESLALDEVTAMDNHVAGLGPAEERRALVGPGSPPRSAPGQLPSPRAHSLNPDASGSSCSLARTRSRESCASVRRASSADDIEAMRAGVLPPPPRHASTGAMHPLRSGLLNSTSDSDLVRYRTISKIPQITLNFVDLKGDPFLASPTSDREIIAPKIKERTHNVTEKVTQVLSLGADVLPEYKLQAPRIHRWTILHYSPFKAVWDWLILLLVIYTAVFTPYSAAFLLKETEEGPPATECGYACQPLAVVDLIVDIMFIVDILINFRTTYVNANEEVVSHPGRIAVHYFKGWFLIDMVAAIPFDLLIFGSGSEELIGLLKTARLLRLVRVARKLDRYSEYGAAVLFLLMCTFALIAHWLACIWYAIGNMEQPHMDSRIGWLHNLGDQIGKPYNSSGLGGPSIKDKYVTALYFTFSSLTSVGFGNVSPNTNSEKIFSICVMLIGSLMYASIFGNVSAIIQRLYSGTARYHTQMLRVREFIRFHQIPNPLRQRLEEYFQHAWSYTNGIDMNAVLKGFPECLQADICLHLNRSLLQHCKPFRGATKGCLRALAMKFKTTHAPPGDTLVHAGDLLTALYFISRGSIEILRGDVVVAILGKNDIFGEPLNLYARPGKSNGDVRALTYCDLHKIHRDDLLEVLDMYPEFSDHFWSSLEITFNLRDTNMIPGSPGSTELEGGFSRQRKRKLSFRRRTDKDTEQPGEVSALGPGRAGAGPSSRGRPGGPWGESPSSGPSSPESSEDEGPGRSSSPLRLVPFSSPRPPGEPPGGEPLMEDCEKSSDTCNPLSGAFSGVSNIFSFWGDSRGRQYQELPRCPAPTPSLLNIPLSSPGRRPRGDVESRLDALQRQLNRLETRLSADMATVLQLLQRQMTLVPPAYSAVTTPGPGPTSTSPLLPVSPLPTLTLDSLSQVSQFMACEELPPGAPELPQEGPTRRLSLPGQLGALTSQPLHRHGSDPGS

Compound | hERG current change (%, negative = inhibition) at 1uM
CC(C)CCC(C(=O)O)C(C)CC(=O)NC1CCCCC1 (stereo not drawn) | 1.26%
Cc1cccc(C(=O)NC(=S)Nc2ccccc2C(=O)O)c1 | 6.08%
CN(Cc1ccccc1)C(=O)c1ccc(NC(=O)Cc2cccc(NC(=O)C3CCCN(C(=O)C4CCCC4)C3)c2)cc1 (stereo not drawn) | 9.95%
Cc1nnc(Sc2cc(C(=O)NCCCN(C)Cc3ccccc3)c3ccccc3n2)s1 | -30.7%
COc1c(C)cc(C(=O)C2CCCN(C(=O)C3=C(C)OCCO3)C2)cc1C (stereo not drawn) | 3.6%
CN(Cc1cccs1)C(=O)c1ccc(S(=O)(=O)NCc2ccco2)cc1 | -8.37%
COC(=O)C1=C(C)NC(=O)NC1c1ccc2c(c1)OCO2 (stereo not drawn) | 21.7%
Cc1c(C=O)c(C=O)c(C)n1Cc1ccccc1 | 10.2%
Cc1ccc(NS(=O)(=O)c2sc3ccc(Cl)cc3c2C)cc1 | 12.1%
CCc1ccccc1OCCCCCNCCO | 3.29%
Cc1cccc(NC(=O)c2nc(S(=O)(=O)Cc3ccccc3)ncc2Cl)c1 | 9.54%
Cc1nnc(NC(=O)CN2CCN(Cc3ccccc3Cl)CC2)s1 | 8.84%
Cc1cc(NC(=O)COC(=O)C(Nc2ccc(C(F)(F)F)cc2Cl)C(C)C)no1 (stereo not drawn) | 19.6%
O=C1CCN(C(=O)Nc2cccc(Cl)c2)N1 | 20%
CC(C)CC(NC(=O)C1CCC(C)CC1)C(=O)NCc1cccnc1 (stereo not drawn) | 4.53%
CCCOc1ccc(CNC(=O)Cc2cccs2)cc1 | 17.9%
CCOC(=O)c1[nH]c(C)c(C(=O)Nc2ccccc2C)c1C | 5.7%
CC(C)C(=O)Nc1cccc(NC(=O)c2cccc(F)c2)c1 | 12.5%
S=c1[nH]c2ccccc2n1CCOc1ccccc1 | 13.4%
COC(=O)C1=C(c2ccc(Cl)c(C(F)(F)F)c2)C[C@@H]2CC[C@H]1N2C(=O)N1CCOCC1 | 11.4%
C=CCN(CC=C)S(=O)(=O)c1ccc(NC(=S)NC(=O)/C=C/c2ccccc2)cc1 | 0.318%
COc1ccccc1N1C(=O)C2C(C(=O)c3ccccc3)=NN(c3ccccc3)C2C1=O (stereo not drawn) | 9.35%
NC(N)=N/N=C/c1ccc(OCc2ccc(Cl)cc2Cl)cc1 | 1.54%

Compound | hERG current change (%, negative = inhibition) at 1uM
O=P(c1ccccc1)(c1ccccc1)C(O)c1ccccn1 (stereo not drawn) | 11.7%
COCCCN(C(=O)c1cc(-c2ccco2)nc2ccccc12)c1c(N)n(Cc2ccccc2)c(=O)[nH]c1=O | -1.33%
CCOC(=O)c1c(NC(=O)c2cc3n(n2)C(C(F)(F)F)CC(c2ccccc2)N3)sc(C)c1C (stereo not drawn) | 5.44%
COc1cccc(-c2nnc3n2N=C(C(C)(C)C)CS3)c1 | -9.48%
COc1cc(/C=N/OCC(=O)Nc2cc(C)cc(C)c2)ccc1OCc1ccc(Cl)cc1 | -11.4%
Cc1cc(=O)oc2cc(OC(C)C(=O)N3CCOCC3)ccc12 (stereo not drawn) | 11.2%
COc1ccc(NC(=O)/C(=C/c2cccnc2)NC(=O)c2cccs2)cc1 | 10.9%
Cc1sc(NC(=O)c2ccco2)c(C(c2ccc(F)cc2)N2CCN(C)CC2)c1C (stereo not drawn) | 0.441%
O=C(/C=C/Nc1ccc([N+](=O)[O-])cc1Br)c1cccc2ccccc12 | 4.86%
Cc1cc2c(Nc3cccc(O)c3)ncnc2s1.Cl | 8.12%
N#CC1=C(N)N(c2ccc(F)cc2)C(=O)C1 | 9.83%
Cc1oc(-c2ccc(Cl)cc2)nc1CN1CCCN(C(=O)c2ccco2)CC1 | -57.4%
COc1ccc(OC)c(C2C(C#N)=C(N)Oc3cc(C)[nH]c(=O)c32)c1 (stereo not drawn) | 14.8%
O=C(COC(=O)c1cc([N+](=O)[O-])ccc1N1CCOCC1)NCCc1ccccc1 | 2.46%
Cc1cc(N2CCOCC2)nc(SCC(=O)c2ccccc2)n1 | 4.69%
O=C(CN1CCN(c2ccccc2)CC1)N1CCc2[nH]c3ccccc3c2C1 | -9.44%
CCOc1ccc(S(=O)(=O)NCCC(=O)NCc2cccnc2)cc1 | 11.8%
O=C(NCc1cccnc1)c1ccc(NS(=O)(=O)c2ccccc2)cc1 | -1.38%
COc1ccc(Cn2c(=O)[nH]c3cc(C(=O)NCc4ccc5c(c4)OCO5)ccc3c2=O)cc1 | 8.12%
CC(c1ccccc1)C1C(C#N)=C(N)OC2=C1C(=O)CC(C)(C)C2 (stereo not drawn) | -23.8%
O=C(Cn1ncc2c(=O)oc3ccccc3c21)N1CCN(c2ccccn2)CC1 | -19.9%
Cc1ccc(Nc2ccncc2S(N)(=O)=O)cc1 | 5.89%

Source: PMC4336329 (PLoS ONE, 2015)
